# Assay results: publication PMC6212790
# The list shows a part of the results. At the low end of the ranking the order means little.
# Target: T1, GST-Rok-C97-191 (UniProt O34857)
# T1 sequence: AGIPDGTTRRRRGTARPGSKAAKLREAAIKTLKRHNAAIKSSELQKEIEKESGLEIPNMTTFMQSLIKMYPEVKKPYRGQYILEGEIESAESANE
# Test: protein binding microarray;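 also: rank score from −0.5 (least bound) to 0.5 (best bound)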
# Conditions: Rok is a gene silencer of Bacillus subtilis; high values mean tight binding; most listed sequences are background and not binding sites; double strand, one strand shown
row,Sequence,binding signal
1,ACTCGAAC,0.0548 E-score
2,GATATTCA,0.103 E-score
3,ACGCCATC,-0.0625 E-score
4,CCAGCGGG,-0.311 E-score
5,ACTGGCTG,-0.139 E-score
6,GAGCACTA,-0.15 E-score
7,ATTTACAG,0.145 E-score
8,AGTCGCTC,-0.292 E-score
9,CCCTTCCC,-0.235 E-score
10,ACACACCA,-0.00894 E-score
11,ACATCGCA,-0.0687 E-score
12,CAACACGC,-0.145 E-score
13,CGTACCAG,-0.239 E-score
14,GTATCAAC,0.0877 E-score
15,ACTCCCAG,-0.0931 E-score
16,TTCATCAA,-0.0101 E-score
17,AGGGGCGA,-0.351 E-score
18,AGTTCTAG,0.236 E-score
19,CCGTAGGA,-0.257 E-score
20,ACCGTCAG,-0.0893 E-score
21,AGGTCTGG,-0.123 E-score
22,CCAATCGG,-0.274 E-score
23,TTCCTAAA,0.0647 E-score
24,AATTCCTC,-0.0519 E-score
25,ACTGCGAT,0.0198 E-score

row,Sequence,binding signal
1,AGGCTGAT,-0.0135 E-score
2,CCAATGAC,-0.298 E-score
3,AAGACACC,-0.185 E-score
4,GACCGTGC,-0.013 E-score
5,GTACTGAC,0.139 E-score
6,GAATACTC,0.0644 E-score
7,AAAGGCTA,-0.0111 E-score
8,GACACCCC,-0.19 E-score
9,AGAGAGAC,-0.149 E-score
10,CCAATCAC,-0.159 E-score
11,GGAAAATA,0.331 E-score
12,AGTGGGAT,-0.0625 E-score
13,AGATTTTC,0.163 E-score
14,GCGGTGGA,-0.152 E-score
15,AGCACAAA,0.15 E-score
16,ACCTTTGA,-0.119 E-score
17,AGCAGGTG,-0.296 E-score
18,ACAATCCT,0.0943 E-score
19,ACTTGGAC,0.0459 E-score
20,ACGCTGCG,-0.221 E-score
21,CCCTACCC,-0.235 E-score
22,AATCATAC,0.224 E-score
23,CGCGTGTC,-0.236 E-score
24,TCCTCACA,-0.0975 E-score
25,GAGAACTC,-0.264 E-score

row,Sequence,binding signal
1,CATGAGAC,-0.195 E-score
2,CCAACCCC,-0.414 E-score
3,CGATGAAG,0.0349 E-score
4,AAATACAC,0.25 E-score
5,AGTTACTA,0.293 E-score
6,ACCCACAG,-0.173 E-score
7,AATCAATA,0.227 E-score
8,CCAGTTAA,0.0719 E-score
9,AATCCTGC,-0.0311 E-score
10,AGTTGTGG,0.017 E-score
11,AACCCCAA,-0.178 E-score
12,GCGAGAGC,-0.214 E-score
13,CCAAGGGG,-0.266 E-score
14,GCAGAGGC,-0.301 E-score
15,AACCCGAT,-0.0936 E-score
16,GAGCGCAC,-0.163 E-score
17,CTTGCTTA,-0.148 E-score
18,CGAGAGCA,-0.155 E-score
19,CGGCCCCG,-0.371 E-score
20,ATAAGTCC,0.221 E-score
21,CCCGTCCG,-0.169 E-score
22,ACTCCTTC,-0.0807 E-score
23,GACAGCGC,-0.0791 E-score
24,GTCAATTA,0.163 E-score
25,GAACCTGA,-0.0577 E-score

row,Sequence,binding signal
1,CCCATTGA,-0.0701 E-score
2,AGGACCTG,-0.227 E-score
3,AGAATCCC,0.0269 E-score
4,ATGCCGTG,-0.0933 E-score
5,ATCGCACC,-0.112 E-score
6,AACAGTAC,0.174 E-score
7,GGGCGTGA,-0.236 E-score
8,ACCACGCC,-0.112 E-score
9,ATGTAGCC,0.0279 E-score
10,ATCCTTGG,0.0799 E-score
11,CGGAGACC,-0.187 E-score
12,CCTTGAAA,-0.102 E-score
13,ACGTGTCA,-0.105 E-score
14,GGCTTCGA,-0.168 E-score
15,AGACTTCA,-0.0306 E-score
16,AGCTCTGC,-0.113 E-score
17,AGTATCGA,0.174 E-score
18,AACGCTTA,-0.146 E-score
19,GCTTATTA,0.139 E-score
20,ACGACGCC,-0.0401 E-score
21,GACGGATA,-0.0695 E-score
22,CCAGTCAA,-0.0685 E-score
23,ACTGACGG,-0.0188 E-score
24,TAGGTAAA,0.247 E-score
25,ACCCCAAT,-0.302 E-score

row,Sequence,binding signal
1,CTGATTGA,-0.0577 E-score
2,CTACTGAA,0.098 E-score
3,CTTTCACC,-0.1 E-score
4,AATTGCCA,0.0565 E-score
5,AAGGTTGT,0.0839 E-score
6,TAGCGTCA,0.0381 E-score
7,ACCAGCAC,-0.0476 E-score
8,ACGTAGCC,-0.0588 E-score
9,AAGTACGC,0.0594 E-score
10,TAGATTGA,0.215 E-score
11,CTTGGACA,-0.00956 E-score
12,ACCGTAGT,0.0984 E-score
13,AGGCGGTG,-0.105 E-score
14,ACTTGTGA,0.0614 E-score
15,AGCACATC,0.0373 E-score
16,AGACTGGG,-0.148 E-score
17,GAGGCAGA,-0.221 E-score
18,GTCTCAAC,-0.0902 E-score
19,ACTGTACA,0.24 E-score
20,TCGTGCCA,-0.0952 E-score
21,GCCTCCCA,-0.401 E-score
22,CAATCTAA,0.232 E-score
23,GGAAAGAA,-0.0711 E-score
24,TCGTTCCA,-0.124 E-score
25,AGCTGGCA,-0.12 E-score

row,Sequence,binding signal
1,AGGGAGTA,-0.0478 E-score
2,AACATCCC,-0.0913 E-score
3,GGGCATGA,-0.238 E-score
4,ATGAAAGG,-0.108 E-score
5,ACCGAATA,0.167 E-score
6,ACCGACGG,-0.255 E-score
7,CGGGAACG,-0.099 E-score
8,CGGGGAAA,-0.0446 E-score
9,CACCCCGC,-0.176 E-score
10,CCAGAGCA,-0.296 E-score
11,ATTAGAAC,0.0664 E-score
12,CTAGTGCA,0.0533 E-score
13,AGTGAATA,0.13 E-score
14,CACATGGA,0.0882 E-score
15,AATAGAGA,0.217 E-score
16,ATCCCACG,-0.061 E-score
17,CAATAGTA,0.33 E-score
18,CCTAAAAC,0.0152 E-score
19,TGCTGCAA,-0.156 E-score
20,AAAGTACG,0.192 E-score
21,ATTGTCGA,0.0851 E-score
22,CTCGTTTC,-0.115 E-score
23,CGCCTTAG,-0.187 E-score
24,CAAAAGGA,-0.239 E-score
25,TCGGACAA,-0.0681 E-score

row,Sequence,binding signal
1,CGTGACAG,-0.272 E-score
2,TAATACCA,0.269 E-score
3,GGTAGGCA,-0.102 E-score
4,AGCAGTAC,0.14 E-score
5,ACGTTAGT,0.202 E-score
6,CTCGAGAG,-0.098 E-score
7,ACGTTAGG,0.0601 E-score
8,GATACAAC,0.107 E-score
9,ACGATTAT,0.0422 E-score
10,AAAAGCAC,-0.0851 E-score
11,CGGCTAAA,0.000683 E-score
12,GGCGTCCC,-0.269 E-score
13,ACCTGATC,0.013 E-score
14,ATGGCTCC,-0.0781 E-score
15,CCTCGGCC,-0.299 E-score
16,ACCTGACG,-0.133 E-score
17,AAGGGGAG,-0.218 E-score
18,AGATCGGC,0.0528 E-score
19,GATTAGGC,-0.111 E-score
20,TACAAAGA,0.0887 E-score
21,CATTAGGG,-0.233 E-score
22,TCATGCGA,-0.0873 E-score
